In article PMC9308218, “FBXL17/spastin axis as a novel therapeutic target of hereditary spastic paraplegia” (Cell & Bioscience, 2022):

Molecular target: T1, GST-SPAST-M1 (human, UniProt Q9UBP0 1-616)
T1 construct: also called GST-tagged SPAST-M1; GST-tagged SPAST; source: E. coli BL21 (pGEX4T1-GST-SPAST-M1), purified (glutathione sepharose)
T1 sequence (looked up): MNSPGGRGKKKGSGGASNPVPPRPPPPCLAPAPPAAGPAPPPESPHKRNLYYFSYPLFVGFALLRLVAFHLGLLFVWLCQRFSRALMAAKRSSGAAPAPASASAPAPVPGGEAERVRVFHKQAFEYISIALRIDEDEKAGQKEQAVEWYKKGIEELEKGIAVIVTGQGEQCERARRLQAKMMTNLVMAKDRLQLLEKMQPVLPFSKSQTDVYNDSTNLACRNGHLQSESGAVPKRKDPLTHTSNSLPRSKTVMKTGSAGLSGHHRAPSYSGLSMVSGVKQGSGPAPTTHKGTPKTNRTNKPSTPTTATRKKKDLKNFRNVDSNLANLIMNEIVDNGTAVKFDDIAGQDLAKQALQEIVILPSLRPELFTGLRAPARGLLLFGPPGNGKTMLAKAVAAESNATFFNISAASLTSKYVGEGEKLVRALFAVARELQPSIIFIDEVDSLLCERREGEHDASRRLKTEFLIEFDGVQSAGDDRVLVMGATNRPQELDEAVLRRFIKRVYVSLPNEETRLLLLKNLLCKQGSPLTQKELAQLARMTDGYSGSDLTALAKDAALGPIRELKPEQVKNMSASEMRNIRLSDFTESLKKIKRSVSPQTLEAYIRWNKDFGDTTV
Assay: pull-down; in vitro binding assay: purified recombinant proteins from E. coli, 0.5 μg each in 200 μl 1 × PBS, 0.1% NP-40, pulled down with glutathione sepharose beads (Fig. 2I)
Details: both partners purified

binding result: binds
B1: His-tagged FBXL17-ΔNT1 ([…]a.a.) (domain or fragment)
chain: not shown
notes: F-box and leucine-rich repeat protein 17, human, […] (a supplementary legend prints […]); also called His-FBXL17-ΔNT1; source: E. coli BL21 (pET28a-His-FBXL17-ΔNT1), purified (Ni-NTA)
